Data reported in ChEMBL document CHEMBL5308541, “MAIP: An Open-Source Tool to Enrich High-Throughput Screening Output and Identify Novel, Druglike Molecules with Antimalarial Activity” (ACS Med Chem Lett, 2023).
The campaign covered roughly 4,800 compounds. About 420 (8.8%) showed an effect of 50% or more. Some of the results follow.

Test system: Plasmodium falciparum
Test: Confirmatory screen in NF54 nanoGlo assay, in single point, at 2uM, 72h
Assay type: functional, Erythrocyte
Conditions: timepoint 72 hour

| SMILES | % Inhibition |
| --- | --- |
| CN1CCN(c2ccc(C(F)(F)F)cc2NCc2cnc[nH]2)CC1 | 62% |
| CN(C)CC12CNCC1CN(c1ccnc3cc(Cl)ccc13)C2 (stereo unspecified) | 98% |
| CN1C2CCC1CC(OC(=O)C1CCC(C(=O)OC3CC4CCC(C3)N4C)(c3ccccc3)c3ccccc31)C2 (stereo unspecified) | 49% |
| CCCOc1cncc(-c2ccc3c(c2)CNCC3)c1 | 3% |
| Oc1ccc(C2=CCN(Cc3cccc4[nH]ccc34)CC2)cc1 | 49% |
| COc1ccc(CCNCc2ccc3[nH]cnc3c2)c(Cl)c1 | 29% |
| CC(C)(C)c1ccc(CNC[C@H](O)c2ccc(F)cc2F)cc1 | 95% |
| Cc1ccc(CNc2ncnc(N)c2Cl)c(N2CCCC2)n1 | 50% |
| CCN(C(C)=O)c1nc(CN2CC=C(c3c[nH]c4cc(F)ccc34)CC2)cs1 | 7% |
| O[C@@H](CNCc1ccc2c(c1)CCO2)c1ccc(F)c(F)c1 | 61% |
| Fc1ccc(N2CC[C@H](CN3CCC(c4c[nH]c5ccccc45)(c4c[nH]c5ccccc45)CC3)C2)cc1 | 97% |
